# Results published in the supplement of paper PMC3334620.
# The full ranking holds about 33,000 sequences; the median of “E-score (-0.5 to 0.5)” is about -0.011, and the highest 2% start at about 0.28. This is one part of the list.
# Biological target: T1, Gcr1 (UniProt P07261)
# T1 sequence: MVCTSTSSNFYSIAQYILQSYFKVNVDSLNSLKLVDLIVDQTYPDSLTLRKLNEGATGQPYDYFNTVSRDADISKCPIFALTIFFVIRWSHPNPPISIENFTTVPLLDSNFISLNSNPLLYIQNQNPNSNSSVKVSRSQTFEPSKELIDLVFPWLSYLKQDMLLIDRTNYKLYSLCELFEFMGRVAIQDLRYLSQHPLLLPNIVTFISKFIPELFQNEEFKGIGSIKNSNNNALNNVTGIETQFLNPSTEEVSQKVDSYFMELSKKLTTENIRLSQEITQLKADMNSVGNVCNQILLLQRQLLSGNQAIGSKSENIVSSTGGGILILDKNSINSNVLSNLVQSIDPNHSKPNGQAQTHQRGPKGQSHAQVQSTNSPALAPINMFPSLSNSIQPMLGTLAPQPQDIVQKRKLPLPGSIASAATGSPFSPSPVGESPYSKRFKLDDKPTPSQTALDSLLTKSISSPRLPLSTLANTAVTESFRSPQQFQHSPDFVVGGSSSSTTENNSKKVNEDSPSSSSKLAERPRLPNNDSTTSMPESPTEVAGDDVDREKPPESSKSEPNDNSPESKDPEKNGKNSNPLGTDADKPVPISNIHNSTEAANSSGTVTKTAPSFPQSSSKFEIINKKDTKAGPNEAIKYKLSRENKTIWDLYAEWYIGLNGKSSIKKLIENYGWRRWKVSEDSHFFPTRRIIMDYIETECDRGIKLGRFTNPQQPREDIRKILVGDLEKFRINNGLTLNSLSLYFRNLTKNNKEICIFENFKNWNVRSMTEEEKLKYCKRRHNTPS
# Assay: PBM E-score (8-mer binding enrichment) (E-score (-0.5 to 0.5)); higher = stronger / more preferred TF binding; most listed sequences are background and not binding sites
# Details: protein concentration: 100 nM; construct: GST-full length
# Method in brief: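 Using PURExpress in vitro transcription/translation, GST-tagged yeast transcription factors were made in full-length or DNA-binding-domain form. These were applied at about 100-200 nM to double-stranded universal all-10-mer Agilent arrays, and bound protein was detected with fluorescent anti-GST. Scans were normalised with masliner before the Universal PBM Analysis Suite assigned E-scores to ungapped eight-base words pooled with their reverse complements.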
row,Sequence,PBM E-score
1,CAAAGGCG,-0.134
2,ATTGTGAA,0.0151
3,GAGTCTCA,-0.199
4,AGACATTA,-0.0316
5,TGGGGACA,0.00214
6,GGATACAA,-0.0278
7,CCTATGAA,0.129
8,CAGCCCCA,0.197
9,GCAAGGTA,-0.00536
10,CATTATTA,0.195
11,CACCGCGG,-0.0161
12,ACCTCACA,-0.188
13,ACCTCGAG,0.00455
14,CGGACCGA,-0.164
15,CCTTAAAC,0.162
16,CTTGTGTC,-0.00768
17,TCACAAAA,0.131
18,CCCGGGAC,0.21
19,CGTTGTCC,0.0549
20,ACACACCC,-0.0652
21,ACGTATCC,0.0516
22,TGGATAAA,0.11
23,CCCTGGAA,-0.204
24,AGCACGGA,-0.144
25,ATGCCAAG,0.106

row,Sequence,PBM E-score
1,ACGGGTTA,-0.0288
2,CCAACTCG,-0.0252
3,CCCGAGGC,-0.187
4,CTATGGCC,-0.0723
5,TCCATAGA,0.203
6,GTACACTA,-0.0677
7,CCTGCCGA,-0.143
8,AAGTTACA,0.0278
9,CTACACGC,0.0499
10,CTGTACTA,-0.0995
11,ACAAATGG,-0.118
12,AGCTATCC,-0.286
13,AGTCGCGA,-0.136
14,TAGTGTGA,-0.287
15,CCGCGTGC,-0.109
16,CATACCAC,-0.236
17,AGGTTCAT,-0.302
18,CGTAACTC,-0.158
19,AGAAGACC,-0.182
20,CACATGGC,0.0107
21,GATTAAAA,0.249
22,AGCATCAG,-0.256
23,ATAGTCCA,-0.0733
24,CCCCATAG,-0.0622
25,GTGGACAC,0.153

row,Sequence,PBM E-score
1,CATATTTC,0.133
2,CCGATTGC,-0.0335
3,CAACAATG,-0.0929
4,CGTTCCCA,-0.0578
5,ATCAATCC,0.141
6,CCGTCGAA,-0.0976
7,ACGAGGTA,-0.0585
8,AAATATTA,0.163
9,AGCTCAAG,-0.255
10,ACTTGTAT,0.207
11,GGGCAACC,0.0954
12,ACACTATG,-0.0627
13,GCGCGAGC,-0.152
14,CCACCGAG,-0.137
15,CTTGAAAG,-0.0544
16,CTATAGGC,0.114
17,TACCCAAA,0.2
18,CCGCAAAC,0.166
19,CTAAGTCC,-0.146
20,GCACGCGA,-0.15
21,CTGAGTTC,0.0373
22,GGGGTGAC,-0.122
23,CTCACTCC,-0.0538
24,AAAAGAAA,0.0118
25,GCAATCCC,-0.123

row,Sequence,PBM E-score
1,GAATGAAC,-0.0801
2,AGGTAACA,0.0528
3,ACAGTCGA,-0.191
4,AAGCAGCG,0.135
5,GCACTACC,-0.102
6,GAACCCGA,0.195
7,CAGAACGC,-0.0196
8,GCAAACAC,-0.104
9,CAAATCTA,0.109
10,CCCTCGGC,-0.244
11,GAGTCTCC,0.0372
12,CTGTTCTC,-0.11
13,CGACAAAG,0.154
14,AAGTTTTC,-0.0608
15,ATTCCTGC,0.048
16,CGCGAACC,0.0289
17,AAATGCAA,-0.0918
18,CGACGATA,0.00085
19,AACGTGGA,-0.11
20,AGACGAAG,0.335
21,GTCCTATA,-0.00162
22,CATGAAGA,-0.0181
23,AAGGGAGT,-0.24
24,GTGTCTAA,-0.0454
25,ACGACTTG,-0.08

row,Sequence,PBM E-score
1,AAAGTCCT,0.0622
2,ACGCAAAG,-0.14
3,ACAACAGC,0.0183
4,AGCCCACG,-0.116
5,CTGCTTAC,0.0339
6,ATAAGACA,0.049
7,CAACTTCA,-0.0643
8,TGGGAACA,-0.0255
9,AAAGGGCA,-0.206
10,AGTTCTGA,-0.102
11,ATTCCGGG,0.121
12,AGGTAATC,-0.103
13,CGCGTATC,0.101
14,CCATTACA,0.0797
15,CGGAGCCA,0.282
16,GAGGGCAC,-0.17
17,GCTTAGGA,-0.1
18,ATTATAAG,0.0645
19,CAATATCG,0.0234
20,ACGGCAAA,0.0638
21,AGCCCCCC,-0.0635
22,ACCCTTTA,-0.0902
23,GCATCTTA,0.257
24,AACCCCCC,-0.23
25,ATGCCCCC,-0.0687

row,Sequence,PBM E-score
1,CGCAGAGC,-0.291
2,CTAACTGC,-0.107
3,GTCCTTGA,-0.0351
4,AAAAGCGA,0.041
5,CATCGTGC,-0.225
6,AACCGTCG,-0.137
7,CCTATGCG,-0.0507
8,ATCCCGCA,0.217
9,CTCCGTGA,-0.00424
10,ACCTACAG,-0.277
11,AAGACTGA,-0.126
12,CCGAAAAC,0.177
13,GAGACTAC,-0.0961
14,ACATACAG,-0.188
15,GTACTAAC,0.0599
16,CATCAAGG,0.0321
17,CCAATTAC,0.124
18,GTCGCTGA,0.175
19,GACCACAA,0.0254
20,AATGGTAG,0.12
21,AGCGATGG,-0.11
22,AAATGCTG,0.00058
23,CCTGAGTA,0.198
24,AATTAAGC,-0.0303
25,CTTGGTGA,0.138

row,Sequence,PBM E-score
1,GAATAAGA,0.0225
2,CTGGCCGC,0.205
3,CTCAGTAA,-0.113
4,AAATTATA,0.0346
5,CATCTGGC,0.0691
6,TAGAATAA,0.198
7,CATAGCCC,-0.272
8,ATAAACTG,0.143
9,AACTATGC,-0.00366
10,CTTTAACC,-0.0388
11,AAGCCAAA,-0.0579
12,ACGTTGAG,-0.0959
13,CCGGAAGG,0.0607
14,GGGCACAC,-0.0584
15,CACAGGCC,0.0731
16,GAGCGGGA,-0.121
17,TCATTGAA,-0.0934
18,CTGGAATC,0.407
19,CATTTCGA,-0.165
20,CGAATGGA,-0.00413
21,TGTTTTAA,0.059
22,ATTCCCGA,0.168
23,ACGTTTAC,-0.00072
24,AATTAAAA,0.149
25,CATACACA,-0.0106

row,Sequence,PBM E-score
1,TACACTCA,0.00634
2,GGGGCGGA,-0.11
3,ATGTCGAA,0.00821
4,CATCCGGA,0.0473
5,ACCCACCA,-0.124
6,CCTCGGTC,-0.223
7,CTTAGAAC,0.0326
8,CATTAGAG,-0.184
9,AGACTCAA,-0.0684
10,CTAAAACA,0.126
11,AATGAATG,0.0488
12,CATTCTGG,0.0135
13,CTGAAGGA,-0.0128
14,AAGTGGCG,0.241
15,CTCTAACA,0.0391
16,ACCACGAT,0.00321
17,GCTCGTGA,0.00805
18,AATTCTTC,0.0967
19,CTCTAGTA,-0.118
20,AGTAGTCC,-0.00744
21,CAGTTTGG,-0.018
22,GCGTGAGC,0.162
23,GTCCACCA,-0.0485
24,CCTCTTTC,0.0512
25,CGATATGC,-0.00269

row,Sequence,PBM E-score
1,GGTTCTAA,0.0995
2,CATTACAC,0.186
3,ACCGCTAT,0.123
4,TAAGGAGA,0.175
5,CCCTTGAA,-0.0847
6,ATCCACCG,-0.0897
7,CGTGGTAA,-0.031
8,ATGTTTCG,0.12
9,ATTTGTGC,-0.00492
10,CCACCTGG,0.0909
11,GAAAATGC,0.145
12,AGTCAGAC,-0.102
13,ATCAACGG,0.139
14,CCTATCAG,0.102
15,CAGATACC,0.187
16,AGCCGATC,-0.166
17,ACTGGTTG,0.2
18,AGAGCCTG,-0.076
19,GCAATGCA,-0.273
